Test results taken from paper PMC4336329 (PLoS ONE, 2015).
The campaign covered roughly 310,000 compounds. About 2,200 (0.71%) showed an effect of 50% or more. Effects have a minus sign here. This is one part of the list.

What follows are compounds tested against human ether-à-go-go-related gene (hERG) potassium channel (human, UniProt Q12809) (assay: primary screen, population patch clamp on CHO cells stably expressing hERG).
Chain of human ether-à-go-go-related gene (hERG) potassium channel (Q12809 whole entry, looked up): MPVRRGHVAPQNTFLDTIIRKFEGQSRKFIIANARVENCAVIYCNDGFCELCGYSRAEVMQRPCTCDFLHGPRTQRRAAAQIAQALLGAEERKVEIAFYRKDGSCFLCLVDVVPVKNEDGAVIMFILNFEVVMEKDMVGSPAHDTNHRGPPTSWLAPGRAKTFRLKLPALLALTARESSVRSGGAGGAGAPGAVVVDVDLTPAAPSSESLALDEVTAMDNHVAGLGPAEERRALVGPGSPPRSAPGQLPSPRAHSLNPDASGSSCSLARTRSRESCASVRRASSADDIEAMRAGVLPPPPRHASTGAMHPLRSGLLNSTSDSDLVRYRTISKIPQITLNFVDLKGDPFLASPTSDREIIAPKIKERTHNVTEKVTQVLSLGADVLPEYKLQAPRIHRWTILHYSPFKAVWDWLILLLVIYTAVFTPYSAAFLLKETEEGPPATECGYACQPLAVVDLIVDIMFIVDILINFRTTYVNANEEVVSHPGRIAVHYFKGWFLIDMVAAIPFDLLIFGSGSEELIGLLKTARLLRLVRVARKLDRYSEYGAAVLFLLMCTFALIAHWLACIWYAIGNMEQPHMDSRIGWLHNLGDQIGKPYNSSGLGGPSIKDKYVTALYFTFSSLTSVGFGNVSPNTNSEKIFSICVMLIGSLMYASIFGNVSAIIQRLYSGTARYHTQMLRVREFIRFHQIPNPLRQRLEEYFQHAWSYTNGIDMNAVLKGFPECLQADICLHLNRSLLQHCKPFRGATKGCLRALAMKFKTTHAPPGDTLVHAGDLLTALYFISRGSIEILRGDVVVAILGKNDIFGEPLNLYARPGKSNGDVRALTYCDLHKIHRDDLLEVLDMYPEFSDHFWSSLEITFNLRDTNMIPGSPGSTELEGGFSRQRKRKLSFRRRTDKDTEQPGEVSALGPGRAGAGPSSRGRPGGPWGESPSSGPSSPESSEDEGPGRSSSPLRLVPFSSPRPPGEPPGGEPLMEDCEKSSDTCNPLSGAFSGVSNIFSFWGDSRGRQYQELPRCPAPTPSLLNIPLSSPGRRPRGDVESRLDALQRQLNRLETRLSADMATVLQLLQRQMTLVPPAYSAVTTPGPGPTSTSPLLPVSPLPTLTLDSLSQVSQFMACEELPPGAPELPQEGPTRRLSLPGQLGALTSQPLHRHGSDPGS

Compound	hERG current change (%, negative = inhibition) at 1uM [%]
O=C(CCNC(=O)c1ccccc1)NCc1ccccc1F	6.19
Cc1csc(Nc2nc(N)c(C(=O)Nc3ccccc3)o2)n1	17.3
CC(=O)c1cccc(NC(=O)C2CC(c3ccc(F)cc3)=NO2)c1 (stereo not drawn)	10.3
CSc1ccccc1OCc1cc(C(=O)NC(C)Cc2cccc(C)n2)no1 (stereo not drawn)	1.95
Cc1ccc(SCC2=NNC(=O)C2)cc1	-8.67
C=CCn1c(=O)c2ccccc2n2c(SC(C)C(=O)Nc3nc(-c4ccccc4)cs3)nnc12 (stereo not drawn)	-0.718
O=C(COC(=O)[C@H](Cc1ccccc1)NC(=O)c1cccs1)NC1CC1	4.45
NC(=O)C1(N2CCCCC2)CCN(C(=O)NC23CC4CC(CC(C4)C2)C3)CC1	-7.69
CC1CCN(C(=O)c2[nH]cnc2C(=O)N(C)Cc2ccccc2)CC1	15.3
CCOC(=O)N/N=C(\C)c1ccccc1OC(F)F	9.71
COc1ccc(N(CC(=O)Nc2cc(C(=O)O)ccc2C)S(=O)(=O)c2c(C)noc2C)cc1	-12.7
COCCCNC(=O)c1ccc2c(=O)n(C3CCCC3)c(=S)[nH]c2c1	-1.77
Cc1ccc(C)c(S(=O)(=O)N2CCCOC2CNC(=O)C(=O)NCc2ccccn2)c1 (stereo not drawn)	4.78
I.c1ccc(Sc2cccc3ccccc23)c(CNC2=NCCN2)c1	-2.32
CCOc1cc(/C=C/C(=O)c2ccc(OC)c(CN3CCOCC3)c2)cc(Br)c1O	2.82
COC(=O)c1ccc(NC(=O)C2CCCN2C(=O)OCc2ccccc2)cc1 (stereo not drawn)	11.2
CC(C)(C)NC(=O)C[n+]1ccc(C(N)=O)cc1.[Cl-]	8.64
Nc1c(C(=O)Nc2ccccc2)sc2nc(-c3ccco3)ccc12	14.6
O=C(Nc1ccncc1)Nc1cccc(Cl)c1Cl	13
COC(=O)[C@H](CC(C)C)NC(=O)CCc1nnc(COc2ccccc2)o1	19.8
Cc1ccc2c(c1)C(c1ccc(F)cc1)N(C(=O)c1ccc(S(=O)(=O)N(C)C)cc1)CC(=O)N2 (stereo not drawn)	8.73
CS(=O)(=O)N1CCN(C(=O)CCc2ccccc2)CC1	13.4
CS(=O)(=O)c1ccc2nc(NC(=O)c3cccs3)sc2c1	-9.29
Cc1ocnc1C(=O)Nc1ccc(Cl)cc1	6.22
O=C1[C@H]2[C@@H](c3ccc(F)cc3)N3C(=O)N(c4cccc(Cl)c4)C(=O)[C@@]3(Cc3ccc(Cl)cc3)[C@H]2C(=O)N1C1CCCCC1	13.8
O=C(Nc1nccs1)c1ccc(Cl)c(S(=O)(=O)N2CCOCC2)c1	-0.0249
CC(C)(C)CN1CCN(Cc2cccnc2)CC1CCO (stereo not drawn)	12

Compound	hERG current change (%, negative = inhibition) at 1uM [%]
COC(=O)c1ccc(NC(=O)Nc2cccc(F)c2)cc1	8.87
COc1ccc(OC)c(C(c2nnnn2CCc2ccccc2)N2CCC(C(N)=O)CC2)c1 (stereo not drawn)	2.91
O=C(NNC(=O)c1ccccc1O)c1ccc(S(=O)(=O)Nc2ccccc2F)cc1	1.09
COC(=O)c1ccc(CNC(=O)COC(=O)C2CCC(C(C)(C)C)CC2)cc1 (stereo not drawn)	7.94
N=C1C(c2ccccc2)=C(O)CN1c1ccc2c(c1)OCO2	12.8
CC(OC(=O)CCCOc1ccccc1)C(=O)Nc1ccc(Cl)cn1 (stereo not drawn)	8.95
CN(CCc1cn[nH]c1)C(=O)CC1C(=O)NCCN1Cc1cccc(Oc2ccccc2)c1 (stereo not drawn)	13.1
COC(=O)Cc1c(C(=O)OC)nnn1-c1ccc(OC(F)(F)F)cc1	14.3
CC(=O)NCC1CCCN(C(=O)c2oc3c(F)cccc3c2C)C1 (stereo not drawn)	16.6
COc1ccccc1NC(=O)CSc1nc(=O)n(CCN2CCOCC2)c2c1CCC2	4
COc1ccc(CCNC(=O)C(=O)NCC2OCCN2S(=O)(=O)c2ccc(Cl)cc2)cc1 (stereo not drawn)	6.15
Cc1ccc(C(=O)NNC(=O)c2cccc(Br)c2)cc1	1.59
COC(=O)c1ccc(NC(=O)CC(=O)Nc2ccc(C(=O)OC)cc2)cc1	12.3
Cc1ccc(C(CNC(=O)Nc2ccc(Cl)cc2)N2CCN(C)CC2)cc1 (stereo not drawn)	-41.4
COc1ccc(NS(=O)(=O)c2ccc(Oc3c(C#N)cccc3C#N)cc2)cc1	8.49
O=C(c1ccc(Cl)c(S(=O)(=O)N2CCCCCC2)c1)N1CCCC(C(F)(F)F)C1 (stereo not drawn)	-2.82
CCOC(=O)c1cc(NCc2cccs2)ccc1N1CCOCC1	4.02
CN(Cc1ccco1)C(=O)c1cc2c(s1)-c1ccc(Cl)cc1S(=O)(=O)C2	8.2
C/C(N)=C(/C#N)C(=O)COC(=O)C(NS(=O)(=O)c1ccc(Cl)cc1)C(C)O (stereo not drawn)	12.2
CCN1CCN(C(=O)c2cc(COc3ccc(C(C)=O)cc3OC)on2)CC1	8.14
O=C(NCCN1CCOCC1)c1ccccc1N1C(=O)[C@@H]2Cc3c([nH]c4ccccc34)C(c3ccccc3)N2C1=O (stereo partly drawn)	-4.5
Cc1c(NC(=O)COC(=O)CCC(=O)c2ccc(Cl)cc2)c(=O)n(-c2ccccc2)n1C	9.62
COc1ccc(Oc2cnn(-c3ccccc3)c(=O)c2Br)cc1	8.31
CCCc1[nH][nH]c(=O)c1C(c1ccccc1)C(C#N)C#N (stereo not drawn)	-5.33
CCc1nnc(NC(=O)Cn2nc(-c3ccc(OC)c(OC)c3)ccc2=O)s1	4.12
Cc1ccc2cc(CCNC(=O)c3ccc(S(=O)(=O)N4CCCCC4)cc3)c(=O)[nH]c2c1	9.32
COC(=O)[C@H](Cc1ccccc1)NC(=O)[C@@H]1C[C@H]1[C@@H](NC(=O)OCc1ccccc1)c1ccccc1	2.84
